Reference: the supplement of paper PMC6531468
The other results are listed elsewhere or left out. These are enrichments in a pooled selection; single values are uncertain. Each score is taken over the longer molecules that contain the sequence shown.

Legend:
Assay in all cases: 6-mer SELEX enrichment z-score vs GST control; IMP3 is the RNA-binding protein IGF2BP3; higher = more enriched by binding
[1] = tested on: IMP3 KH1-4; conditions: construct: KH1-4 (164-579); SELEX round: R4
Procedure: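 SELEX-seq with GST-tagged IMP3 KH1-4 (Pro164-Lys579) and an N40 RNA pool, round 4. 6-mer z-score of sequence-tag enrichment normalised to the corresponding GST SELEX round; RNA k-mers written as DNA (T for U).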

[2] = tested on: IMP3 RRM1-2; conditions: construct: RRM1-2 (1-163); SELEX round: R2
Procedure: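 SELEX-seq with GST-tagged IMP3 RRM1-2 (Met1-Asn163) and an N40 RNA pool, round 2. 6-mer enrichment z-score normalised to GST SELEX. RNA written as DNA (T = U).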

[3] = molecular target: IMP3 full-length (UniProt O00425); conditions: construct: FL IMP3 (1-579); SELEX round: R4
Procedure: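 SELEX-seq with GST-tagged full-length IMP3 and an N40 RNA pool, round 4. Each 6-mer is scored as an enrichment z-score of sequence tags containing it, normalised to the matching GST SELEX round. RNA written as DNA (T = U).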

[4] = tested on: IMP3 KH1-2; conditions: construct: KH1-2 (164-376); SELEX round: R4
Procedure: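 SELEX-seq with GST-tagged IMP3 KH1-2 (Pro164-Phe376) and an N40 RNA pool, round 4 (stringent 300/600 mM KCl washes). 6-mer z-score of sequence-tag enrichment normalised to the corresponding GST SELEX round; RNA k-mers written as DNA (T for U).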

[5] = tested on: IMP3 KH3-4; conditions: construct: KH3-4 (377-579); SELEX round: R4
Procedure: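 SELEX-seq with GST-tagged IMP3 KH3-4 (Pro377-Lys579) and an N40 RNA pool, round 4. 6-mer z-score of sequence-tag enrichment normalised to the corresponding GST SELEX round; RNA k-mers written as DNA (T for U).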

Sequence of IMP3 RRM1-2 (chain, as listed by the source): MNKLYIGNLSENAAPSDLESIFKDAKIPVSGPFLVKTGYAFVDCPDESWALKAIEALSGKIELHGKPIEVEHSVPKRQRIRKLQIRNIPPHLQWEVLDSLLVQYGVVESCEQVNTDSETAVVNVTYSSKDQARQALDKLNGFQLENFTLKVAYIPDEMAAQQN
Sequence of IMP3 KH1-2 (chain, as listed by the source): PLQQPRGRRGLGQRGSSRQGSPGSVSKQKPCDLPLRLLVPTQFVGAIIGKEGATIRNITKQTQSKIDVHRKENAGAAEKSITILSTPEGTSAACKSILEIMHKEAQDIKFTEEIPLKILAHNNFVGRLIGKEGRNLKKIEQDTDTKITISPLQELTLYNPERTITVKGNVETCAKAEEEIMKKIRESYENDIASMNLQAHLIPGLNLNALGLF
Sequence of IMP3 KH3-4 (chain, as listed by the source): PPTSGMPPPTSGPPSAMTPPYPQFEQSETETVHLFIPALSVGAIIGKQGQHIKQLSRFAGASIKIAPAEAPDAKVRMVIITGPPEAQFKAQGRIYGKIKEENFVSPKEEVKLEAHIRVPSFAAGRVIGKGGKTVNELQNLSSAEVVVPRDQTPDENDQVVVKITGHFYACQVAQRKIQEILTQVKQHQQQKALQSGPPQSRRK
Sequence of UniProt O00425 (O00425 whole entry): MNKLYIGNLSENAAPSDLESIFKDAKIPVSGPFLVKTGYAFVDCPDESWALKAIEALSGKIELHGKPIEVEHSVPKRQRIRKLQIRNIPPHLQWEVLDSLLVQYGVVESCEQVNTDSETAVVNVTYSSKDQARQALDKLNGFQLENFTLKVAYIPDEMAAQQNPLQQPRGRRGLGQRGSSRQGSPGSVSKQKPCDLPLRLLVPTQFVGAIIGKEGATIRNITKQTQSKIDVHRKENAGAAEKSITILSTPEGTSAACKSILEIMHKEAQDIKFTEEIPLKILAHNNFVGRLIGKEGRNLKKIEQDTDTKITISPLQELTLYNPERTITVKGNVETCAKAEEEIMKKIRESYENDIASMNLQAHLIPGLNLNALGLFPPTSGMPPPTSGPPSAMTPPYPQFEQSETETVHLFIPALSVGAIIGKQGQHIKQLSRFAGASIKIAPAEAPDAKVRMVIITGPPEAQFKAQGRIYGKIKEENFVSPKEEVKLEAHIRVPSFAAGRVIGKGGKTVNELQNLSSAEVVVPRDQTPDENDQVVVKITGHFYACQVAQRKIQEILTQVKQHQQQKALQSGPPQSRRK
Sequence of IMP3 KH1-4 (chain, as listed by the source): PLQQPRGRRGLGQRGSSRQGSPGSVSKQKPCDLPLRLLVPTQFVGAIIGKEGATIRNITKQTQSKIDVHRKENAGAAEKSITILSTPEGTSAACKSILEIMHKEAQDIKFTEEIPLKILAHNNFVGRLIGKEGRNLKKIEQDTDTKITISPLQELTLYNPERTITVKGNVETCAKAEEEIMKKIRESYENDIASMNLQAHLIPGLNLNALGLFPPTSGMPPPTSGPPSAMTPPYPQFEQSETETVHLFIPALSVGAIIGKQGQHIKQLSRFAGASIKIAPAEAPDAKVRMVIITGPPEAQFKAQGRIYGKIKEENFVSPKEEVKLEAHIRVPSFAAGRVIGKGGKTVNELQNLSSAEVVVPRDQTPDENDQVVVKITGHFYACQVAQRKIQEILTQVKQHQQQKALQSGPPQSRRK

Sequence | 6-mer SELEX enrichment z-score [1] | 6-mer SELEX enrichment z-score [2] | 6-mer SELEX enrichment z-score [3] | 6-mer SELEX enrichment z-score [4] | 6-mer SELEX enrichment z-score [5]
TCCACA | 0.597 | 1.17 | 0.712 | 0.619 | -0.304
CATGTT | 0.479 | 0.499 | 0.43 | 0.284 | 0.41
TCGGTC | 0.404 | 0.475 | 0.698 | 0.289 | 0.344
GTGCGT | -1.06 | 0.381 | -0.463 | -0.919 | -0.772
TTTGAG | -0.869 | 0.094 | -0.7 | -0.839 | -0.505
TGAATA | 1.38 | -0.851 | -0.341 | 0.985 | 2.1
AAATCC | -0.485 | -1.27 | -1.26 | -0.231 | -0.94
GGTTGA | -0.213 | 0.033 | -0.099 | -0.099 | -0.041
GTCTCC | -0.477 | 0.384 | 0.273 | -0.308 | -0.394
GCCAGC | 0.084 | 0.004 | 0.608 | 0.101 | -0.269
CCTGCC | -1.15 | -0.621 | -1.01 | -0.914 | -1.59
TGACGC | -0.565 | -0.29 | -0.397 | -0.546 | -0.646
TGGCCA | 0.785 | -0.018 | 0.51 | 0.506 | 0.612
TGAAAC | -0.306 | -1.31 | -1.07 | -0.279 | 0.038
ATGCAA | 0.781 | 0.058 | 0.443 | 0.668 | 0.779
TTGCAG | 0.519 | 0.166 | 0.339 | 0.488 | 0.412
CACATC | 1.1 | 2.64 | 2.6 | 1.07 | -0.006
TTTATA | 1.29 | 0.228 | 0.357 | 1.28 | 2.07
ATCAGG | 0.64 | 1.42 | 1.41 | 0.452 | 0.538
CCGTCT | -0.574 | 0.116 | 0.082 | -0.368 | -0.431

Sequence | 6-mer SELEX enrichment z-score [1] | 6-mer SELEX enrichment z-score [2] | 6-mer SELEX enrichment z-score [3] | 6-mer SELEX enrichment z-score [4] | 6-mer SELEX enrichment z-score [5]
GTTGGA | -0.152 | 0.141 | -0.069 | -0.11 | 0.015
CTGACC | -1.13 | -0.908 | -1.37 | -1.03 | -1.56
CGATTG | -0.493 | -0.377 | -0.594 | -0.495 | -0.4
GATTTT | 0.748 | 0.154 | 0.09 | 0.694 | 1.19
GCTTCG | -0.424 | 0.313 | -0.054 | -0.29 | -0.21
GCGGGG | 0.783 | -0.028 | 0.872 | 1.28 | 0.927
CAAACG | -1.87 | -1.06 | -1.16 | -1.86 | -1.88
GGACTT | 0.002 | -0.055 | -0.188 | -0.106 | 0.043
TTCGCA | 0.482 | 0.318 | 0.318 | 0.438 | 0.234
TAGGCA | 0.848 | 0.692 | 1.06 | 0.527 | 0.896
GACAAC | -0.481 | -0.171 | -0.07 | -0.403 | -0.756
GACAGC | -0.433 | -0.054 | 0.466 | -0.332 | -0.612
GTGAAG | 0.175 | -0.538 | -0.361 | 0.084 | 0.225
TGCATT | 0.468 | 0.563 | 0.452 | 0.34 | 0.422
GGGAAG | 0.82 | -0.495 | 0.235 | 0.917 | 0.799
TCTTGT | -0.245 | 0.524 | 0.024 | -0.163 | -0.078
TTGGGG | 0.357 | 0.423 | 0.307 | 0.489 | 0.631
GCATAC | 0.726 | 0.579 | 1.2 | 0.455 | 0.293
CTGAAG | -0.418 | -0.609 | -0.595 | -0.409 | -0.394
CCAGAA | -0.604 | -1.03 | -0.924 | -0.694 | -0.781

Sequence | 6-mer SELEX enrichment z-score [1] | 6-mer SELEX enrichment z-score [2] | 6-mer SELEX enrichment z-score [3] | 6-mer SELEX enrichment z-score [4] | 6-mer SELEX enrichment z-score [5]
ACGAGG | -0.618 | -0.61 | -0.142 | -0.538 | -0.391
ACGACT | -0.327 | -0.542 | -0.869 | -0.515 | -0.76
GAACAG | 0.478 | -0.775 | 0.393 | 0.442 | 0.391
GATCCC | -0.57 | -0.691 | -0.642 | -0.623 | -1.14
CTAATA | 0.958 | -0.447 | -0.278 | 0.894 | 1.31
TCTACT | 0.427 | 0.274 | 0.003 | 0.367 | 0.328
CGGCTA | 0.54 | 0.407 | 0.888 | 0.316 | 0.806
TATGAA | 1.38 | -0.858 | -0.386 | 0.98 | 2.09
GAACTT | -0.2 | -0.504 | -0.68 | -0.227 | -0.078
GAGAAA | 0.062 | -1.86 | -1.16 | -0.14 | 0.885
GGATCA | 0.486 | 1.3 | 0.723 | 0.225 | 0.445
TGAAGT | 0.234 | -0.396 | -0.323 | 0.079 | 0.334
TTCAAG | -0.074 | 0.519 | 0.248 | -0.142 | 0.068
TAGTGA | -0.134 | -0.073 | -0.408 | -0.307 | -0.005
CGACCC | -1.63 | -1.01 | -1.36 | -1.51 | -2.27
ATTTCT | 0.934 | 0.426 | 0.392 | 1.04 | 1.01
ACGGTC | 0.226 | -0.052 | 0.408 | -0.098 | -0.205
CGACGA | -1.81 | -1.19 | -1.08 | -1.71 | -1.78
TCGGGA | -0.432 | -0.029 | 0.061 | -0.306 | -0.16
GCATAA | 0.868 | 0.127 | 0.943 | 0.704 | 1.01
